Laboratory results from patent publication US12043658B2, “Conjugate comprising an active MMP-9-binding peptide” (Daiichi Sankyo Company, Limited, priority 2017, dated 2024).

Experiments:
[1] = target: T1, pro mouse MMP-9 (pro-mMMP-9(cat)_His6_FLAG_Avi) (Mus musculus, UniProt P41245); test: Immunoprecipitation with pro mouse MMP-9 enzyme active domain; format: binding; details: Protein G beads, detection in Elu lane
T1 construct: a propeptide (Ala20-Arg107), an enzyme active domain (Phe108-Pro449), a FLAG tag; made in house; host or cells: FreeStyle 293F
T1 sequence (P41245 108-449): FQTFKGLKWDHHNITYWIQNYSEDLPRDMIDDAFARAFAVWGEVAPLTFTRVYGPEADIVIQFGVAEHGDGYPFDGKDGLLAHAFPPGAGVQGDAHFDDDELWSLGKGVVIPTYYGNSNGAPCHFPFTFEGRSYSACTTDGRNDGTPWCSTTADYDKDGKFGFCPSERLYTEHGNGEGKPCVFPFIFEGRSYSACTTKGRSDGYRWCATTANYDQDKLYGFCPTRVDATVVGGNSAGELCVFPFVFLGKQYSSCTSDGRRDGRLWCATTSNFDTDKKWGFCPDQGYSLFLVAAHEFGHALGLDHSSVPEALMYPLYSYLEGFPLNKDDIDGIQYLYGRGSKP
Protocol: (§1) In the same way, using M91005-Fc-01 prepared in (7-2), and pro-mMMP-9(cat)_His6_FLAG_Avi and active mMMP-9(cat)_FLAG_Avi prepared in (2-2), the binding activity was evaluated by an immunoprecipitation method. Samples for evaluation were subjected to SDS-PAGE, and the binding activity was evaluated by detection using Mouse MMP-9 Antibody (R&D Systems; AF909) and Peroxidase AffiniPure F(ab′)2 Fragment Donkey Anti-Goat IgG(H+L) (Jackson ImmunoResearch Inc.; 705-036-147).
(§2) When M91005-Fc-01-bound beads were used, pro-mMMP-9(cat)_His6_FLAG_Avi was not detected in the Elu lane, while active mMMP-9(cat)_FLAG_Avi was detected in the Elu lane. In contrast, when the beads not linked to M91005-Fc-01 were used, pro-mMMP-9(cat)_His6_FLAG_Avi and active mMMP-9(cat)_FLAG_Avi were not detected in the Elu lanes (FIG. 14(B)).

[2] = target: T2, active mouse MMP-9 (active mMMP-9(cat)_FLAG_Avi) (Mus musculus, UniProt P41245); test: Immunoprecipitation with active mouse MMP-9 enzyme active domain; format: binding; details: Protein G beads, detection in Elu lane
T2 construct: an enzyme active domain (Phe108-Pro449), a FLAG tag; His tag (before the propeptide) (N, cleaved yes); made in house; host or cells: FreeStyle 293F
T2 sequence (P41245 108-449): T1 sequence (P41245 108-449)
Protocol: as §1, §2

[3] = target: T3, active human MMP-9 (active hMMP-9(cat)_His6) (Homo sapiens, UniProt P14780); test: Immunoprecipitation with active human MMP-9 enzyme active domain; format: binding; details: Protein G beads, detection in Elu lane
T3 construct: an enzyme active domain (Phe107-Pro449) and a His tag; made in house; host or cells: FreeStyle 293F
Protocol: (§3) With M91005-Fc-01 prepared in (7-2) and pro-hMMP-9(cat)_His6 and active hMMP-9(cat)_His6 prepared in (2-1), the binding activity was evaluated by an immunoprecipitation method. 3 μg of the active MMP-9-binding peptide derivative and 1.5 mg of Dynabeads™ Protein G for Immunoprecipitation (Thermo Fisher Scientific) were mixed, and reacted at room temperature for 30 minutes. After washing, 0.39 μg of pro human MMP-9 enzyme active domain or 0.63 μg of active human MMP-9 enzyme active domain was added, and the mixture was reacted at 4° C. for 1 hour. After separating the beads with a magnet, the supernatant fraction (FT) was recovered. […] The added human MMP-9 enzyme active domain (Inp), FT and Elu were subjected to SDS-PAGE, and the binding activity was assessed by detection with Biotinylated Human MMP-9 Antibody (R&D Systems; BAF911) and Streptavidin-HRP Conjugate (GE Healthcare; RPN2280). […]
(§4) When the beads linked to M91005-Fc-01 were used, pro-hMMP-9(cat)_His6 was not detected in the Elu lane, while active hMMP-9(cat)_His6 was detected in the Elu lane. In contrast, when the beads not linked to M91005-Fc-01 were used, pro-hMMP-9(cat)_His6 and active hMMP-9(cat)_His6 were not detected in the Elu lanes (FIG. 14(A)).

[4] = target: T4, human MMP-9 (active hMMP-9(cat)_His6) (Homo sapiens, UniProt P14780); test: Human MMP-9 inhibitory activity of active MMP-9-binding peptide derivatives (substrate peptide); format: biochemical; details: 0.6 nM active hMMP-9(cat)_His6
T4 construct: an enzyme active domain (Phe107-Pro449) and a His tag; made in house; host or cells: FreeStyle 293F
Protocol: The substrate peptide MOCAc-KPLGL-A2pr (Dnp)-AR-NH2 (SEQ ID NO: 30 (FIG. 46)) (PEPTIDE […], INC.; 3226-v) was dissolved in water to 1 mM, and diluted with an assay buffer (50 mM Tris-HCl, 200 mM NaCl, 2 mM CaCl2, pH 7.5) to use at a final concentration of 2.5 to 10 μM. Fifty μl each of the active hMMP-9(cat)_His6 diluted with the assay buffer and the active MMP-9-binding peptide were mixed, and reacted at 37° C. for 1 hour. Then, 100 μl of the substrate diluted with the assay buffer was added, and fluorescence signals (excitation 328 nm/emission 393 nm) were measured with Enspire (PerkinElmer, Inc.). The final concentration of active hMMP-9(cat)_His6 was 0.4 nM, and the final concentration of the active MMP-9-binding peptide was 0.5 to 25 nM. For reactions and measurements, a ProteoSave™ SS96F black plate (Sumitomo Bakelite Co., Ltd.) was used.
According to the method described in (4-1), human MMP-9 inhibitory activity of each of the binding peptides was evaluated with 0.6 nM final concentration of active hMMP-9(cat)_His6 and 0.0015 to 100 nM final concentration of each active MMP-9-binding peptide (FIGS. 11(A), 12(A), and 13(A)).

[5] = target: T5, pro human MMP-9 (pro-hMMP-9(cat)_His6) (Homo sapiens, UniProt P14780); test: Immunoprecipitation with pro human MMP-9 enzyme active domain; format: binding; details: Protein G beads, detection in Elu lane
T5 construct: a propeptide (Ala20-Arg106), an enzyme active domain (Phe107-Pro449) and a His tag; made in house; host or cells: FreeStyle 293F
Protocol: as §3, §4

T5 sequence (P14780 20-449): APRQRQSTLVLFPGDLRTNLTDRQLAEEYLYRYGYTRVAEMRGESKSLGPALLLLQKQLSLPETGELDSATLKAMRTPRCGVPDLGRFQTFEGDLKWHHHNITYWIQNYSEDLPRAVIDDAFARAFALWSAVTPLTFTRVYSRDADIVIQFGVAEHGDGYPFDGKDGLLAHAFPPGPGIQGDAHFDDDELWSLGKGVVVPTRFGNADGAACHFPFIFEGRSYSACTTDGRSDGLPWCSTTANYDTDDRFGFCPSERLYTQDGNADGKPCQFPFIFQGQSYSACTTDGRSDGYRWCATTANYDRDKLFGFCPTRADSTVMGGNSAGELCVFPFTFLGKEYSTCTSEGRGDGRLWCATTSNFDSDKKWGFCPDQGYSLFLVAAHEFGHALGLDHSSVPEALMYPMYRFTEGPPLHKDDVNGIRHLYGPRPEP
T4 sequence (P14780 107-449): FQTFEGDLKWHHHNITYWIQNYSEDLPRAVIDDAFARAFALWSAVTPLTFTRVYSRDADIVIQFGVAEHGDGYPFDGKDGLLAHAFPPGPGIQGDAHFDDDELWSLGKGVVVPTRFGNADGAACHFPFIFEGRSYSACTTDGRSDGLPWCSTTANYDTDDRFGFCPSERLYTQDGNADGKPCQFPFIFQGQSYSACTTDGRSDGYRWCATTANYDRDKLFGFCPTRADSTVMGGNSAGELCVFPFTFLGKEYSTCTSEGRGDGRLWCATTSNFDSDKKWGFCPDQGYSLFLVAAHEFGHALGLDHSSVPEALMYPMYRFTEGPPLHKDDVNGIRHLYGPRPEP
T3 sequence (P14780 107-449): as above

binding to pro mouse MMP-9 by immunoprecipitation [1]: does not bind to pro mouse MMP-9
binding to active mouse MMP-9 by immunoprecipitation [2]: binds specifically to active mouse MMP-9
binding to active human MMP-9 by immunoprecipitation [3]: specifically binds to active human MMP-9
human MMP-9 inhibitory activity IC50 compared with parent [4]: M91005-Fc-01 and M91005 are equivalent
binding to pro human MMP-9 by immunoprecipitation [5]: does not bind to pro human MMP-9
B1: M91005-Fc-01: Fc conjugate: Stag+linker 1, M91005, C-terminal 6-mer, G4S linker and human IgG1 Fc (protein)
chain: GSGMKETAAAKFERQHMDSPDLGTDDDDKAMADIGSANSDPQFGLFSKYRTPNCRKRGGPSCQMSYNPVCGSDMSTYANECTLCMKIREGGHNIKIIRNGPCGASAAAGGGGS[… human IgG1 Fc …]
